The values below come from ChEMBL document CHEMBL4888484, “Replenishing the malaria drug discovery pipeline: Screening and hit evaluation of the MMV Hit Generation Library 1 (HGL1) against asexual blood stage Plasmodium falciparum ,using a nano luciferase reporter read-out” (2022).

A word on the % Inhibition: it is the change of the read-out against control, counted positive when it falls.

The experiment concerns Plasmodium falciparum. Nature of the experiment: Primary screen in NF54 nanoGlo assay, in single point, at 2uM, 72h; a lower Z score goes with more inhibition. In kind it is functional, Erythrocyte. As to conditions: timepoint 72 hour.

Among all 150,000 compounds or so, about 540 (0.36%) showed an effect of 50% or more. The list shows a part of the results.

Turning to `COc1ccc(CC(=O)N2CCC3(CC2)Nc2ccccc2S(=O)(=O)N3)cc1`, the “% Inhibition” value is listed as -11% and the Z score came out at 1.96.
For the compound `CCNC(=NCc1c(C)nn(C)c1OC)NCC`, the “% Inhibition” value is 0% and the Z score turned out to be 0.05.
The like results for `CCO[C@H]1N(C)C(=O)C(C#N)=NN1c1ccc(C)cc1` were, in that order, -10% and 1.5.
On to `COCC1(CNC(=O)c2c(C)ncnc2C)CCC1`, for which the “% Inhibition” value is listed as 1% and the Z score is reported as -0.09.
`Cc1nc(CNS(=O)(=O)c2ccc(-c3cc(C(F)(F)F)[nH]n3)o2)no1`: the “% Inhibition” value is on record as -12% and the Z score came to 1.22.
The matching figures for `CCN(CCNC(=O)c1ncoc1-c1ccc2c(c1)OCCO2)C1CC1`: -13% and 1.65.
In the case of `Cc1c(C(=O)N(C)[C@H]2CCCc3c2cnn3C)cnn1C(C)C`, the “% Inhibition” value was -2% and the Z score is on record as 0.26.
Take `Cc1ccc(C)c(C(=O)N(C)CC(=O)NC(C)(C)C)c1`: the “% Inhibition” value is listed as 3% and the Z score was -0.4.
The matching figures for `Cc1ccccc1NC(=O)C(C)(C)Br`: 5% and -0.68.
With `COc1ccc(NC(=O)CCc2[nH]c(C)c(C(=O)N(C)C)c2C)cc1`, the “% Inhibition” value is on record as -9% and the Z score is on record as 1.21.
On to `Cc1cccc(NC(=O)[C@H]2CCCN(c3nnc4ccc(C(F)(F)F)cn34)C2)c1`, for which the “% Inhibition” value is -1% and the Z score is on record as 0.25.
The matching figures for `CCOc1ccc(NCCn2c(Nc3ccc(OCC)cc3)nc3c2c(=O)[nH]c(=O)n3C)cc1`: -4% and 0.56.
As to `N#Cc1cnn(-c2ccc(NC(=O)CCCc3ccccn3)cc2)c1N`, the “% Inhibition” value is on record as -12% and the Z score is on record as 1.04.
For `Cc1ccc(-n2nc(-c3ccccc3F)cc2C(=O)NC(c2ccccc2)c2ccccc2)cc1`, the “% Inhibition” value is recorded as 0% and the Z score was determined as 0.
On to `CCOc1nc(N(C)CCn2cnnc2)ncc1Br`, for which the “% Inhibition” value is -2% and the Z score is on record as 0.3.
The matching figures for `NC(=O)c1cc(C2=CCCCC2)ccc1Cl`: 4% and -0.46.
The like results for `COCCn1ccc(NC(=O)C(=O)NC[C@H](O)c2ccccc2C)n1` were, in that order, -3% and 0.47.
The like results for `Cn1nncc1C1(O)CN(C(=O)CCCC2CC2)C1` were, in that order, 2% and -0.28.
With `COC(=O)CN(CC#N)Cc1nc(C(C)(C)C)cs1`, the “% Inhibition” value was -5% and the Z score was 0.48.
In the case of `O=C1N(Cc2cccc3ccccc23)c2ccccc2C1(c1ccc(O)cc1)c1ccc(O)cc1`, the “% Inhibition” value is given as 1% and the Z score is -0.13.
For the compound `Cc1noc([C@@H]2CCCN2S(=O)(=O)c2ccc3c(c2)CCCC3)n1`, the “% Inhibition” value is reported as -1% and the Z score turned out to be 0.1.
The matching figures for `CCc1cc(CN(C)Cc2ccc(-n3ccnc3)cc2)on1`: -3% and 0.54.
For the compound `O=C(C1CCCC1)N(CCN1CCOCC1)CC(=O)N1N=C(c2ccc(F)cc2)C[C@H]1c1ccccc1F`, the “% Inhibition” value is -8% and the Z score worked out at 0.85.
For the compound `Cc1cccc(CCNC(=O)N[C@H]2CCCN(c3ccnn3C)C2)n1`, the “% Inhibition” value is 1% and the Z score was -0.05.
`CO[C@@H]1CCC[C@@H]2CN(C(=O)c3c[nH]c4ccccc34)C[C@@H]21`: the “% Inhibition” value is 6% and the Z score is listed as -0.63.
As to `CC(=O)Nc1ccc2c(c1)cc(C(=O)N1CCCC1)n2Cc1ccccc1`, the “% Inhibition” value was -8% and the Z score was determined as 1.55.
The like results for `CC(=O)N1CCN(C(=O)c2csc3ccccc23)CCC12CCOCC2` were, in that order, 4% and -0.66.
For `CCN(CC)c1nc(C)cc(C(=O)NCc2ccc(F)cc2)n1`, the “% Inhibition” value is -3% and the Z score was found to be 0.47.
For `Cc1noc(C)c1C(=O)NCC1(C2CCC2)CCC1`, the “% Inhibition” value is reported as 5% and the Z score is recorded as -0.62.
The like results for `CCN(C[C@H]1CCCO1)C(=O)CN(C)C(=O)c1cccs1` were, in that order, -12% and 1.52.
Turning to `Fc1ccccc1COc1ccc2c(Cc3ccc(Cl)cc3)noc2c1`, the “% Inhibition” value is given as -12% and the Z score was found to be 1.55.
Take `O=C(CC1CC2CCC1C2)N1CC(N2CCOCC2)C1` (centres undefined): the “% Inhibition” value was -7% and the Z score was 0.88.
On to `CCCCN(Cc1ccco1)Cc1cnn(CCC)c1C`, for which the “% Inhibition” value was -6% and the Z score was 0.94.
For the compound `Cn1cc(CN2CCC3(CCC(O)CC3)CC2)c(-c2cccs2)n1`, the “% Inhibition” value was -3% and the Z score is reported as 0.52.
As for `O=C(Nc1cc[nH]n1)c1csc(-c2ccc(Cl)s2)n1`, the “% Inhibition” value is -12% and the Z score was 1.89.
The matching figures for `COCCn1cnnc1CNS(=O)(=O)c1cccc(C(=O)NC2CC2)c1`: -5% and 0.63.
In the case of `O=C(c1ccccc1)N1C[C@H]2CNC(=O)[C@]23CCCC[C@@H]13`, the “% Inhibition” value was -11% and the Z score amounted to 1.8.
As to `C[C@H](NC(=O)CN1CCCCCC1)c1ccc(F)cc1`, the “% Inhibition” value is recorded as -5% and the Z score was 0.63.
The like results for `O=C(Nc1ccc(Cc2nnc3ccccn23)cc1)Nc1cccnc1` were, in that order, -18% and 3.31.
Regarding `CCS(=O)(=O)c1cccc(CC(=O)N[C@@H](C)CC#N)c1`, the “% Inhibition” value was -6% and the Z score came out at 0.69.
Turning to `O=C(NC1CCCC1)[C@H]1CCc2ncc(-c3ccc(F)cc3)n2C1`, the “% Inhibition” value is -8% and the Z score is given as 1.45.
Take `Cc1cc(C(=O)NC[C@@]23CCCC=C2N(C)C(=O)CC3)nn1C`: the “% Inhibition” value is reported as -13% and the Z score is given as 1.83.
